# Measured values taken from PubChem BioAssay (Tox21).
# The inconclusive results got no clear call from the source; some entries with a clear call stand among them for comparison. For some assays here: Potencies of inconclusive entries are doubtful fits and often do not repeat. More than one record can exist for a structure, and the calls need not agree. Active and inactive are the calls of the source. Unless noted, calls follow the shape of the dose curve; as a rule, active = well fitted curve in the direction sought with a large enough effect in the repeat runs; inconclusive = weak or mixed curves; inactive = no such curve, though single readings can be large; an effect the other way counts as inactive or inconclusive.
# Legend:
# [1] = qHTS assay for identifying genotoxic compounds that show differential cytotoxicity against isogenic chicken DT40 cell lines with known DNA damage response pathways - Rad54/Ku70 mutant cell line (AID 743015); settings: DT40 Rad54/Ku70 mutant viability, CellTiter-Glo, 40 h; activity change, negative = cytotoxicity: at 66.8 µM (top of the series) unless noted; also: nearly all actives have a fitted effect of over 60% in size; also: potency is read from the fitted curve at half-maximal effect; as to activity change, negative = cytotoxicity: % is scaled to controls: 0 for no effect and ±100 for the full control effect
# [2] = qHTS assay to identify small molecule antagonists of the estrogen receptor alpha (ER-alpha) signaling pathway using the BG1 cell line - cell viability counter screen (AID 743081); settings: BG1Luc4E2 viability, CellTiter-Fluor, 22 h; activity change, negative = cytotoxicity: at 70.3 µM (top of the series) unless noted;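 also: compound given together with 17beta-estradiol as the ER stimulus; nearly all actives have a fitted effect of over 45% in size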; also: potency is read from the fitted curve at half-maximal effect
# [3] = qHTS assay to identify small molecule antagonists of the thyroid receptor (TR) signaling pathway (AID 743065); also: nearly all actives have a fitted effect of over 55% in size; also: potency is read from the fitted curve at half-maximal effect
# How it was run: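 Antagonism measured as loss of luciferase signal in GH3 cells stably carrying a TRE-luciferase reporter, co-treated with compound and T3 (1 nM final) for 23.5 h at 37 C. Viability was read in the same well by CellTiter-Fluor.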
# [4] = qHTS assay to identify small molecule agonists of the retinoic acid receptor (RAR) signaling pathway (AID 1159553); settings: C3RL4 RARE luciferase reporter, agonist, 6 h; activation: at 73.3 µM (top of the series) unless noted; also: potency is read from the fitted curve at half-maximal effect; as to activation: % is scaled to controls: 0 for no effect and ±100 for the full control effect
# How it was run: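 Activation of retinol signaling was monitored via a RARE luciferase reporter in C3RL4 cells. After 6 hr compound treatment at 37 C, detection reagent was added for 30 min at room temperature before luminescence reading.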
# [5] = qHTS assay to identify small molecule agonists of H2AX - cell viability counter screen (AID 1224847; calls by dose curve; also: nearly all actives have a fitted effect of over 30% in size; also: potency is read from the fitted curve at half-maximal effect)
# How it was run: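 Quantitative HTS viability measurement: CHO-K1 wild-type cells in serum (10% FBS) medium, short 3 hr drug exposure at 37C with 0.76% DMSO, CellTiter-Glo luminescent detection.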
# [6] = qHTS RealTime-Glo MT Cell Viability Assay in HEK293 cells - 16 hour (AID 1224872); also: nearly all actives have a fitted effect of over 50% in size; also: potency is read from the fitted curve at half-maximal effect
# How it was run: (§1)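 HEK293 cells seeded with NanoLuc/prosubstrate reagent, rested 5 h at 37 C, then dosed and kept at 37 C up to 40 h. Nonlytic real-time luminescence from viable cells read at 0, 8, 16, 24, 32 and 40 h.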
# [7] = qHTS RealTime-Glo MT Cell Viability Assay in HEK293 cells - 24 hour (AID 1224886); also: potency is read from the fitted curve at half-maximal effect; nearly all actives have a fitted effect of over 50% in size
# How it was run: as §1
# [8] = qHTS RealTime-Glo MT Cell Viability Assay in HEK293 cells - 8 hour (AID 1224887); also: nearly all actives have a fitted effect of over 50% in size; also: potency is read from the fitted curve at half-maximal effect
# How it was run: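 Tox21 screen in HEK293 using RealTime-Glo MT chemistry, with cells and reagent co-dispensed. Luminescence proportional to viable cell number was captured at intervals during 40 h compound exposure at 37 C.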
# [9] = Caspase-3/7 induction in HepG2 cells by small molecules, qHTS cell viability counter screen (AID 1346981); also: nearly all actives have a fitted effect of over 30% in size; also: potency is read from the fitted curve at half-maximal effect
# How it was run: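 Multiplexed with the caspase-3/7 assay: HepG2 cells, 16 hr compound treatment, CellTiter-Fluor viability detection by fluorescence.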
# [10] = qHTS assay for small molecule agonists of the p53 signaling pathway (AID 651631; calls by dose curve; also: nearly all actives have a fitted effect of over 15% in size; also: potency is read from the fitted curve at half-maximal effect); settings: HCT-116 p53RE-bla reporter, beta-lactamase FRET ratio, 16 h; activation: at 73.3 µM (top of the series) unless noted
# How it was run: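 We treat p53RE-bla HCT-116 cells with compounds for 16 h at 37 °C, add LiveBLAzer B/G FRET substrate for 2 h at room temperature, and measure fluorescence intensity.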
# [11] = target: Estrogen receptor beta (Homo sapiens) (UniProt Q92731); test: qHTS assay to identify small molecule agonists of the estrogen receptor beta (ER-beta) signaling pathway (AID 1259377; active = well fitted activation curve with a large enough effect in the signal ratio in the repeat runs, not every such curve was filed as active; inconclusive = weak or mixed curves, or effect the other way; the % refers to the signal ratio; also: potency is read from the fitted curve at half-maximal effect); settings: ER-beta-UAS-bla HEK293T, beta-lactamase FRET ratio, 16 h; activation: at 92.4 µM (top of the series) unless noted
# How it was run: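 Read-out: beta-lactamase FRET fluorescence. Cell line: ER-beta-UAS-bla HEK293T in 2% charcoal-stripped FBS. Exposure: 16 hr at 37C. Substrate step: 2 h at room temperature.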
# [12] = qHTS assay for small molecule activators of the heat shock response signaling pathway (AID 743210; active = well fitted activation curve with a large enough effect in the signal ratio in the repeat runs, with a control signal flat, not every such curve was filed as active; inconclusive = weak or mixed curves; the % refers to the signal ratio;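 also: HeLa cells with beta-lactamase reporter driven by heat shock elements; % is scaled to controls: 0 for no effect and ±100 for the full control effect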); settings: HeLa HSE-bla reporter, beta-lactamase ratio, 5 h; activation: at 62.6 µM (top of the series) unless noted
# How it was run: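 HeLa HSE-bla cells, overnight plating; cpd in DMSO 5 h, 37 C; LiveBLAzer B/G FRET substrate 2.5 h RT; fluorescence intensity read.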
# [13] = qHTS assay to identify small molecule antagonists of the estrogen receptor alpha (ER-alpha) signaling pathway - cell viability counter screen (AID 743074; calls by dose curve;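 also: HEK293 cells carrying ER-alpha-UAS-bla reporter stimulated with 17beta-estradiol; nearly all actives have a fitted effect of over 45% in size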; also: potency is read from the fitted curve at half-maximal effect)
# [14] = qHTS assay to identify small molecule agonists of the farnesoid-X-receptor (FXR) signaling pathway - cell viability counter screen (AID 743218); settings: FXR-bla HEK293T viability, CellTiter-Glo luminescence, 16 h; viability change, negative = cytotoxic: at 62.6 µM (top of the series) unless noted; also: nearly all actives have a fitted effect of over 45% in size; also: potency is read from the fitted curve at half-maximal effect
# How it was run: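 After 16 h at 37 C with test compounds, FXR-bla HEK 293T cells were given LiveBLAzer B/G substrate for 2 h at RT and then CellTiter-Glo; luminescence was taken after 30 min.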
# [15] = qHTS assay to identify small molecule agonists of the estrogen receptor beta (ER-beta) signaling pathway - cell viability counter screen (AID 1259380); also: nearly all actives have a fitted effect of over 30% in size; also: potency is read from the fitted curve at half-maximal effect
# How it was run: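 Cells used were ER-beta-UAS-bla HEK293T in medium with 2% charcoal-stripped FBS. They were treated for 16 hr at 37C. Viability came from CellTiter-Glo luminescence.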
# [16] = Caspase-3/7 induction in CHO-K1 cells by small molecules, qHTS cell viability counter screen (AID 1346979); also: nearly all actives have a fitted effect of over 35% in size; also: potency is read from the fitted curve at half-maximal effect
# How it was run: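 CellTiter-Fluor viability check, qHTS format: wild-type CHO-K1, 16hr compound treatment, 1hr reagent incubation, fluorescence read.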
# [17] = target: Nuclear receptor subfamily 1 group I member 2 (Homo sapiens) (UniProt O75469); test: Human pregnane X receptor (PXR) small molecule agonists, qHTS assay (AID 1346982); also: nearly all actives have a fitted effect of over 35% in size; also: potency is read from the fitted curve at half-maximal effect
# How it was run: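 We seeded PXR-Luc HepG2 cells in assay medium containing 5% charcoal-stripped FBS, added compounds 5 hr later, incubated 24 hr, and read luminescence with ONE-Glo reagent.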
# [18] = qHTS assay to identify small molecule antagonists of the peroxisome proliferator-activated receptor delta (PPARd) signaling pathway - cell viability counter screen (AID 743213); settings: PPARd-bla HEK293H viability, CellTiter-Glo luminescence, 17 h; viability change, negative = cytotoxic: at 62 µM (top of the series) unless noted; also: potency is read from the fitted curve at half-maximal effect; nearly all actives have a fitted effect of over 50% in size
# How it was run: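 PPARd-bla HEK293H cells (3000/well) got compound plus 300 nM L165041 agonist for 17 h at 37 C. Viability in the same wells came from CellTiter-Glo luminescence after 30 min at room temperature.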
# [19] = target: Vitamin D3 receptor (Homo sapiens) (UniProt P11473); test: qHTS assay to identify small molecule agonists of the vitamin D receptor (VDR) signaling pathway (AID 743222; calls by dose curve; also: % is scaled to controls: 0 for no effect and ±100 for the full control effect); settings: HEK293T VDR-UAS-bla, beta-lactamase FRET ratio, 16 h; activation: at 63.5 µM (top of the series) unless noted
# How it was run: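 VDR-bla cells were seeded, left 4 h, treated with compounds in DMSO for 16 h, incubated 2 h at RT with B/G FRET substrate, and read for fluorescence.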
# [20] = qHTS assay to identify small molecule antagonists of the vitamin D receptor (VDR) signaling pathway - cell viability counter screen (AID 743225); settings: VDR-bla HEK293T viability, CellTiter-Glo luminescence, 16 h; viability change, negative = cytotoxic: at 61 µM (top of the series) unless noted
# How it was run: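 Parallel cytotoxicity test: VDR-UAS-bla HEK 293T, 3 nM (final) 1-alpha,25-dihydroxyvitamin D3 with test compound, 16 h, 37C. Endpoint is CellTiter-Glo luminescence in the same wells.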
# Tags tell the direction and shape of the fitted curve or compound fluorescence and quenching.
# Chain of UniProt O75469 (O75469 whole entry, looked up): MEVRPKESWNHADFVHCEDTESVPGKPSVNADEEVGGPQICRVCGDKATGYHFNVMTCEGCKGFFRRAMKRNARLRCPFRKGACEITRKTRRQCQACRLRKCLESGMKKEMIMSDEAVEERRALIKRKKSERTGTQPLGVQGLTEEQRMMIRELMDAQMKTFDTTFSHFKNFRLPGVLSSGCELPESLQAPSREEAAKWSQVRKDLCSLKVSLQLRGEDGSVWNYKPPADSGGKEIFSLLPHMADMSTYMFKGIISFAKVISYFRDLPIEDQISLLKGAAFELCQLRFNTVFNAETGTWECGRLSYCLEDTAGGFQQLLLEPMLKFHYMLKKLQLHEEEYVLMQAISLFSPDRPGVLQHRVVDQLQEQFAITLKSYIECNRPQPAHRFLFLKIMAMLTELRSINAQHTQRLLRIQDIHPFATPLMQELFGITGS
# Chain of UniProt Q92731 (Q92731 whole entry, looked up): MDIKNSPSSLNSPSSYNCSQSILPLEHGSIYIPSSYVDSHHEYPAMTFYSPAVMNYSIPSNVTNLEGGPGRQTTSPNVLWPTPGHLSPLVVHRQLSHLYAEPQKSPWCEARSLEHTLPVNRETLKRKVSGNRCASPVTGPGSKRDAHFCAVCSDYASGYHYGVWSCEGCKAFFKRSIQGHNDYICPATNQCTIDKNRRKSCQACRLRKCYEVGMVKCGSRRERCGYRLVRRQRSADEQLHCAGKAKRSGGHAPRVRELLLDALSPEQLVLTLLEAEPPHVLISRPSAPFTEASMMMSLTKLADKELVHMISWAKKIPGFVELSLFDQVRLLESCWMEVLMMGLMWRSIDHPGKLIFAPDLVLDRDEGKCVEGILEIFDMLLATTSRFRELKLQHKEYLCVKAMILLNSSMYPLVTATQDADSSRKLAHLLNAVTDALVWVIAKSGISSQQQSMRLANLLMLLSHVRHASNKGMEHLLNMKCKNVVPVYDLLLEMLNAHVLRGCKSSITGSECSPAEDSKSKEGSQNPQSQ
# Chain of UniProt P11473 (P11473 whole entry, looked up): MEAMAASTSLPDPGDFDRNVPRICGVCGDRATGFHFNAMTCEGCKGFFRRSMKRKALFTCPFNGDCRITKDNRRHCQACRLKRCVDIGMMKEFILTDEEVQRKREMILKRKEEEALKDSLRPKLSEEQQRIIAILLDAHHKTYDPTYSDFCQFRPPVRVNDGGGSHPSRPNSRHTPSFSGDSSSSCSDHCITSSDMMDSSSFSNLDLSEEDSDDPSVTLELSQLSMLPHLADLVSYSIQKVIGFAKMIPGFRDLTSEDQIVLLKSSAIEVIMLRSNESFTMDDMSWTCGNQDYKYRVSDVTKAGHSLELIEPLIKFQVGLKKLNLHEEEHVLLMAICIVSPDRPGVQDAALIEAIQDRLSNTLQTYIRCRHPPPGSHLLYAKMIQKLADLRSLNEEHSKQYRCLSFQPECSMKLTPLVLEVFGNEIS
smiles,measurement,setting,value
COC[C@H](c1ccc(C(F)(F)F)cc1)N1CCN(C2(C)CCN(C(=O)c3c(C)ncnc3C)CC2)C[C@H]1C,Potency,[1],inactive
same,Potency,[2],"inconclusive: 13.3 µM [cytotoxic, single point]"
CSc1nc(NC2CC2)nc(NC(C)(C)C)n1,Potency,[3],inconclusive: 61.1 µM [inhibitor]
same,activation,[4],inconclusive: 1.97% [phenotype inactive]
same,Potency,[5],inactive
same,Potency,[6],active: 24.5 µM
same,Potency,[7],active: 21.9 µM
same,Potency,[8],active: 19.5 µM
same,Potency,[9],"inconclusive: 27.3 µM [cytotoxic, single point]"
COc1ccc(CCC(C)=O)cc1,Potency,[10],"inconclusive: 27.3 µM [activator, single point]"
same,Potency,[11],inactive
CN(C)CCN(C)CCO,Potency,[12],inactive
same,Potency,[5],"inconclusive: 1.79 µM [cytotoxic, single point]"
O=C1O[C@H]([C@H](O)CO)C(O)=C1O,Potency,[13],"inconclusive: 1.1 µM [cytotoxic, partial curve, poor fit]"
CC(O)CCCCn1c(=O)c2c(ncn2C)n(C)c1=O (stereo not drawn),Potency,[10],inactive
CCN(CCC#N)c1ccc(N=Nc2ccc([N+](=O)[O-])cc2)cc1,Potency,[5],"inconclusive: 28.4 µM [cytotoxic, partial curve]"
same,Potency,[6],inactive
same,Potency,[8],inactive
Nc1ccn([C@@H]2O[C@H](CO)[C@@H](O)C2(F)F)c(=O)n1,Potency,[10],active: 0.106 µM
same,Potency,[3],active: 0.0422 µM
same,Potency,[13],"inconclusive: 5.35 µM [rising, full curve, poor fit]"
same,Potency,[14],inactive
same,Potency,[6],"inconclusive: 1.51 µM [cytotoxic, full curve]"
same,Potency,[7],"inconclusive: 1.34 µM [cytotoxic, full curve]"
same,Potency,[15],"inconclusive: 0.298 µM [cytotoxic, single point]"
same,Potency,[16],"inconclusive: 6.68 µM [cytotoxic, full curve]"
same,Potency,[17],"inconclusive: 9.44 µM [activator, partial curve, poor fit]"
CC(C)(Oc1ccc(CCNC(=O)c2ccc(Cl)cc2)cc1)C(=O)O,Potency,[9],"inconclusive: 54.5 µM [cytotoxic, partial curve]"
COc1c2occc2c(OC)c2c(=O)cc(C)oc12,Potency,[13],"inconclusive: 4.06 µM [rising, partial curve, poor fit]"
same,Potency,[18],"inconclusive: 5.96 µM [cytotoxic, full curve, poor fit]"
same,Potency,[6],active: 9.52 µM
same,Potency,[8],active: 9.52 µM
CNc1ncnc2nc[nH]c12,Potency,[18],"inconclusive: 0.0177 µM [cytotoxic, full curve, poor fit]"
same,Potency,[19],inactive
same,activation,[4],inconclusive: -1.74% [phenotype inactive] [at 94.8 µM]
same,Potency,[5],inactive
CCC(C(=O)OCCOCCN(CC)CC)c1ccccc1 (stereo not drawn),Potency,[17],inactive
c1ccc(B(c2ccccc2)c2ccccc2)cc1,Potency,[10],inactive
same,Potency,[1],inactive
same,Potency,[12],inactive
same,Potency,[4],active: 54.4 µM
same,Potency,[6],"inconclusive: 54.9 µM [cytotoxic, single point]"
same,Potency,[7],"inconclusive: 43.6 µM [cytotoxic, partial curve]"
same,Potency,[15],"inconclusive: 15.3 µM [cytotoxic, single point]"
same,Potency,[16],inactive
same,Potency,[9],"inconclusive: 27.3 µM [cytotoxic, partial curve, poor fit]"
O=C(O)CONC(=O)c1ccccc1,Potency,[2],inactive
same,Potency,[12],inactive
same,Potency,[9],inactive
CC#N,Potency,[10],inactive
same,Potency,[3],inactive
same,Potency,[13],inactive
O=C(O)c1cc(C(=O)O)cc(C(=O)O)c1,Potency,[16],inactive
C=CC(C)CCCC(C)(C)O (stereo not drawn),Potency,[1],"inconclusive: 68.6 µM [cytotoxic, single point]"
same,Potency,[14],"inconclusive: 17.4 nM [rising, full curve, poor fit]"
same,Potency,[5],"inconclusive: 35.7 µM [rising, single point]"
same,Potency,[11],active: 54.4 µM
same,Potency,[15],inactive
COc1ccc(S(=O)(=O)N2c3ccc(Cl)cc3[C@@](O)(c3ccccc3Cl)[C@H]2C(=O)N2CCC[C@@H]2C(N)=O)cc1OC,Potency,[1],"inconclusive: 33.5 µM [cytotoxic, single point]"
same,Potency,[13],inactive
same,Potency,[5],inactive
same,Potency,[6],"inconclusive: 21.3 µM [cytotoxic, partial curve]"
same,Potency,[7],"inconclusive: 23.9 µM [cytotoxic, partial curve]"
same,Potency,[8],"inconclusive: 21.3 µM [cytotoxic, partial curve]"
same,Potency,[17],"inconclusive: 16.8 µM [activator, partial curve]"
O=C(O)Cc1ccc(CCNS(=O)(=O)c2ccc(Cl)cc2)cc1,Potency,[3],inactive
same,Potency,[20],"inconclusive: 1.2 nM [cytotoxic, full curve, poor fit]"
same,Potency,[6],inactive
